From paper PMC7519094 come the findings set out here.

No constants are given. Whether binding was seen depends on the method and setting. Binding seen in cells or lysates may run through a third protein. Some results given as binding are weak or reduced against the parent protein; the word gives no strength. Tags and fused reporters may be left off the sequences shown.

The target in experiment [1] is T1, LET2-FLAG (C-terminal FLAG-tagged LET2/MDS1) (Arabidopsis thaliana) (UniProt Q9FID9).
T1 sequence: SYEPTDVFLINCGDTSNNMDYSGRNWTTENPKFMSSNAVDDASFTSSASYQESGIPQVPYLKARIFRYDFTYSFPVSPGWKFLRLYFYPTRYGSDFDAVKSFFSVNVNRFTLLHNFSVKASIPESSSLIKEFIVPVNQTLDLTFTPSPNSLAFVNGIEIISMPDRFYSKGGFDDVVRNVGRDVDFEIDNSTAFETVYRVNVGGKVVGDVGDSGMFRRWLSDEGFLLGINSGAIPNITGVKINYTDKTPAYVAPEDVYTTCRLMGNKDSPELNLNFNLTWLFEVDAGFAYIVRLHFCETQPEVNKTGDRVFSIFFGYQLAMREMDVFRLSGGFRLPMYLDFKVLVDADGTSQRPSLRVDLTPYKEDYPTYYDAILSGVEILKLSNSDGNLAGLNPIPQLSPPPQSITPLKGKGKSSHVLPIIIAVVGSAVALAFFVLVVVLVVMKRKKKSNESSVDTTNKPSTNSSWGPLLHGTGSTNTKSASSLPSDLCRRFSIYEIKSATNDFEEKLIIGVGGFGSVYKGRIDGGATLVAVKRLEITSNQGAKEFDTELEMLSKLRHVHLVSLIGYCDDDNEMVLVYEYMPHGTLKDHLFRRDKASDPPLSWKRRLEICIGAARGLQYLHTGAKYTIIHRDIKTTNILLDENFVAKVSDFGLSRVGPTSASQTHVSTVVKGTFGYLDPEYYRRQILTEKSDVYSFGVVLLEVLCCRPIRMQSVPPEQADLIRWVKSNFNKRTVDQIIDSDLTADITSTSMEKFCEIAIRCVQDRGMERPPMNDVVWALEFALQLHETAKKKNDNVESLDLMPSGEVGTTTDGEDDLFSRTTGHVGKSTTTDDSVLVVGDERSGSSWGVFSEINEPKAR
In words: co-IP; tagged proteins co-expressed in Arabidopsis protoplasts; lysate in 100 mM NaCl, 10 mM HEPES pH 7.5, 0.5% Triton X-100; precipitated with α-FLAG affinity beads at 4 °C for 2 h; immunoblot with α-HA and α-FLAG. (Immunoblotting shows a protein as a band on a membrane.)

The target of experiment [2] is T2, LET1^ECD-FLAG (extracellular malectin-like domains of LET1) (Arabidopsis thaliana) (UniProt O22187).
T2 sequence: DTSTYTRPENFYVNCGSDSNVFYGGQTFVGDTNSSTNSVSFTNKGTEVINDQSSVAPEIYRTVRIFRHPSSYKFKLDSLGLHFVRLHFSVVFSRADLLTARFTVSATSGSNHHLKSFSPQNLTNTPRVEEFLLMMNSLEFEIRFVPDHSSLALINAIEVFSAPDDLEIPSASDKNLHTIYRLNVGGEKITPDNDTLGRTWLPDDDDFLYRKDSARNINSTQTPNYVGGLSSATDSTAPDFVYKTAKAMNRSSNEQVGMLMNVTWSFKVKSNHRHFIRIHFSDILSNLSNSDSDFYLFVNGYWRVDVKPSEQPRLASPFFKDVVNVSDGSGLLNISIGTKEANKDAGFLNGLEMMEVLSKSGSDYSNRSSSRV
Described as above.

The target of experiment [3] is T3, LET1-FLAG (C-terminal FLAG-tagged LET1) (Arabidopsis thaliana) (UniProt O22187).
T3 sequence: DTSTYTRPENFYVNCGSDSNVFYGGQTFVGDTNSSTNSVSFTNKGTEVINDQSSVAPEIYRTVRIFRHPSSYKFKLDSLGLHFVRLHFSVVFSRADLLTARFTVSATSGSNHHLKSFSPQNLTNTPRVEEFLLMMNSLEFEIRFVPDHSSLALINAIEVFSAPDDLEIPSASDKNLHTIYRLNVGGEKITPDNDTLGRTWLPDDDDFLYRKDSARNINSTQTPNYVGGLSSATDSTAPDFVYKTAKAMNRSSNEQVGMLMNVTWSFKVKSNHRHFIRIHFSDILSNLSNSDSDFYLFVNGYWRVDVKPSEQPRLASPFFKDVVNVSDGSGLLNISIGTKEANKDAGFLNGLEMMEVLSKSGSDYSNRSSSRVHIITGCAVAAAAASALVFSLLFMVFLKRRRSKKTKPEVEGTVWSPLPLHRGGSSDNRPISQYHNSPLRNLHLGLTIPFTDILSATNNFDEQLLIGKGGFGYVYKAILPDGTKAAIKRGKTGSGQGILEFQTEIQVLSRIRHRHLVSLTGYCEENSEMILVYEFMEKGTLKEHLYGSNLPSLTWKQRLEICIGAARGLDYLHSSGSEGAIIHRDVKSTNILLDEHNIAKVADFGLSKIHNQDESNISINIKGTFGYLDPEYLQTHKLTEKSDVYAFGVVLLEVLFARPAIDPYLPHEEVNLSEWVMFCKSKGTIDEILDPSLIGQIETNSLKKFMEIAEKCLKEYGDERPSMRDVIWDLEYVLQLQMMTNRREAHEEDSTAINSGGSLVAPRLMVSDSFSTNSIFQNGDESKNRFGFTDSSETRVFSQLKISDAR
The experiment is described as above.

Experiment [4] concerns the target T4, BIR2-mCherry (UniProt Q9LSI9).
T4 sequence: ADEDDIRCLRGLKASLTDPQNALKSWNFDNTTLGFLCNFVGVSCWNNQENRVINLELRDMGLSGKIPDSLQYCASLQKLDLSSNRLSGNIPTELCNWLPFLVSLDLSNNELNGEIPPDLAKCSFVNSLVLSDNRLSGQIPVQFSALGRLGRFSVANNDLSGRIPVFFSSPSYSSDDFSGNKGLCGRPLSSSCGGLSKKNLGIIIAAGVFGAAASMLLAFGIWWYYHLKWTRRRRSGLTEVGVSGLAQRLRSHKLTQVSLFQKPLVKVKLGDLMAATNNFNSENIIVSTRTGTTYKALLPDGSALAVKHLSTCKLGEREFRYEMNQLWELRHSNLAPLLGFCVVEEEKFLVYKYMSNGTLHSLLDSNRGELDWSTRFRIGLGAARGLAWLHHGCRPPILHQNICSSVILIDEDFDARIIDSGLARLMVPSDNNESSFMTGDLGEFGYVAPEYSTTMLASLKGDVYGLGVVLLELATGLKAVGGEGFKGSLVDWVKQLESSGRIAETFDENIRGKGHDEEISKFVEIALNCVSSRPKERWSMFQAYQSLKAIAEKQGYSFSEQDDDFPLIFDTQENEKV
Briefly: FRET or BRET; FRET-FLIM of GFP (donor) and mCherry (acceptor) fusions expressed in Arabidopsis protoplasts for 16 h; GFP fluorescence lifetime, n = 15 protoplasts.

In experiment [5] the target is T5, LET2-mCherry (Arabidopsis thaliana) (UniProt Q9FID9).
T5 sequence: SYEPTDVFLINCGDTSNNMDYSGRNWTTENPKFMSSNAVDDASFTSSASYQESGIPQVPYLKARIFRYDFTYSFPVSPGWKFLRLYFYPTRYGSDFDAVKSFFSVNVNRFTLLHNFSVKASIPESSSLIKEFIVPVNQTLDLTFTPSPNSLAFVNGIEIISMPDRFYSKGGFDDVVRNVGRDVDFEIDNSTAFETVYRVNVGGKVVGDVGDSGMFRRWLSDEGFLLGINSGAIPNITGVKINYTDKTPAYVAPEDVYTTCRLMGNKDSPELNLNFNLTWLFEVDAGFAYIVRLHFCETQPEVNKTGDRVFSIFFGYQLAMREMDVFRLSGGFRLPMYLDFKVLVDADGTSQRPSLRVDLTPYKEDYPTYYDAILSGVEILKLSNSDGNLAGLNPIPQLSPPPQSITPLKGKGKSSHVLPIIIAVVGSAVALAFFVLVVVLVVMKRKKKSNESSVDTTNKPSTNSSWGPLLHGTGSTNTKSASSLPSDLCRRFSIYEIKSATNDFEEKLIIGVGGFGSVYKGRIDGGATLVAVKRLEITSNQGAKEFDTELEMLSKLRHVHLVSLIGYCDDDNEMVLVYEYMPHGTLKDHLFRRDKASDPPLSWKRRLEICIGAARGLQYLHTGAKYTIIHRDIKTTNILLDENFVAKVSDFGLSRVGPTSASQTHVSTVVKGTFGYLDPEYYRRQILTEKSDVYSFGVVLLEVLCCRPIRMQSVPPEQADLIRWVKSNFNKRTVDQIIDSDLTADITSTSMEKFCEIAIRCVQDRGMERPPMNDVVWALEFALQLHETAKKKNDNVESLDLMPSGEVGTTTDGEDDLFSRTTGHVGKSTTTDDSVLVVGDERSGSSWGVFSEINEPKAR
The experiment is described as above.

B1: HA-LLG1 (N-terminal HA-tagged LLG1) (protein, UniProt Q9FKT1 24-144)
chain: SFISDGVFESQSLVLGRNLLQTKKTCPVNFEFMNYTIITSKCKGPKYPPKECCGAFKDFACPYTDQLNDLSSDCATTMFSYINLYGKYPPGLFANQCKEGKEGLECPAGSQLPPETSAEVN
For the molecule B1, the binding entry in experiment [1], in experiment [2] and in experiment [3] was “binds” each time.

B2: LET1-GFP (receptor, UniProt O22187 29-834)
chain: DTSTYTRPENFYVNCGSDSNVFYGGQTFVGDTNSSTNSVSFTNKGTEVINDQSSVAPEIYRTVRIFRHPSSYKFKLDSLGLHFVRLHFSVVFSRADLLTARFTVSATSGSNHHLKSFSPQNLTNTPRVEEFLLMMNSLEFEIRFVPDHSSLALINAIEVFSAPDDLEIPSASDKNLHTIYRLNVGGEKITPDNDTLGRTWLPDDDDFLYRKDSARNINSTQTPNYVGGLSSATDSTAPDFVYKTAKAMNRSSNEQVGMLMNVTWSFKVKSNHRHFIRIHFSDILSNLSNSDSDFYLFVNGYWRVDVKPSEQPRLASPFFKDVVNVSDGSGLLNISIGTKEANKDAGFLNGLEMMEVLSKSGSDYSNRSSSRVHIITGCAVAAAAASALVFSLLFMVFLKRRRSKKTKPEVEGTVWSPLPLHRGGSSDNRPISQYHNSPLRNLHLGLTIPFTDILSATNNFDEQLLIGKGGFGYVYKAILPDGTKAAIKRGKTGSGQGILEFQTEIQVLSRIRHRHLVSLTGYCEENSEMILVYEFMEKGTLKEHLYGSNLPSLTWKQRLEICIGAARGLDYLHSSGSEGAIIHRDVKSTNILLDEHNIAKVADFGLSKIHNQDESNISINIKGTFGYLDPEYLQTHKLTEKSDVYAFGVVLLEVLFARPAIDPYLPHEEVNLSEWVMFCKSKGTIDEILDPSLIGQIETNSLKKFMEIAEKCLKEYGDERPSMRDVIWDLEYVLQLQMMTNRREAHEEDSTAINSGGSLVAPRLMVSDSFSTNSIFQNGDESKNRFGFTDSSETRVFSQLKISDAR
Turning to B2, the binding result is listed as “no binding” in experiment [4] and “binds” in experiment [5].
